# Measured values taken from PubChem BioAssay AID624417 (National Center for Advancing Translational Sciences (NCATS), 2012).
# Where “and” joins values, the source holds several entries; their conditions need not be identical. Equal entries are not always repeated. In all, about 410,000 compounds went through this assay and about 6,400 (1.6%) were called active. The inconclusive results got no clear call from the source; some entries with a clear call stand among them for comparison. Calls come from the whole dose curve; as a rule, active = well fitted inhibition curve with a large enough effect; inconclusive = small, poorly fitted or top-dose-only effect; inactive = no such curve, though single readings can be large or run the other way. Potencies beside an inconclusive call are fits to weak or partial responses and may not hold up.
# Target: Glucagon-like peptide 1 receptor (Homo sapiens) (UniProt P43220)
# Sequence of UniProt P43220 (P43220 whole entry, looked up): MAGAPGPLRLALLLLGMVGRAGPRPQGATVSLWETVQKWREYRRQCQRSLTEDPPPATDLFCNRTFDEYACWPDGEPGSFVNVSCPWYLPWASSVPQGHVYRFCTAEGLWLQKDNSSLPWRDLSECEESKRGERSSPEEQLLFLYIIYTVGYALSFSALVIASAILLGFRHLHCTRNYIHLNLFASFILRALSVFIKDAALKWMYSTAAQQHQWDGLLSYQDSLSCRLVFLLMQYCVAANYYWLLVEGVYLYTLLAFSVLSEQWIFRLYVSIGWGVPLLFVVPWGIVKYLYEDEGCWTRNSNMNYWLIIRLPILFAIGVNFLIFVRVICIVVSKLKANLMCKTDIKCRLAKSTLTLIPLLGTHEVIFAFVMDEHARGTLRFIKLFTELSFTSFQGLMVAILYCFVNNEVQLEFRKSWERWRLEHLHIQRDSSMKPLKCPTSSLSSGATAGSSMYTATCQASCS
# Test: qHTS of GLP-1 Receptor Inverse Agonists (Inhibition Mode); note: nearly all actives have a fitted effect of over 55% in size
# Conditions: HEK293 GLP-1R CRE-luciferase, luminescence, 24 h, GLP-1R form is constitutively active; activity change, negative = inhibition: at 38.3 µM (top of the series) unless noted
# Summary of the method: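 Stable HEK293 clone (constitutively active GLP-1R + cAMP-response luciferase); 200 cells/uL plated, 12 h pre-culture, compound 24 hr, 37 deg C/5% CO2; detection reagent 12 min RT; luminescence.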
# % is set by controls: 0 for no effect and ±100 for the full control effect; potency is the fitted concentration of half-maximal effect; tags give direction and shape of the fitted curve.
Structure (SMILES),Potency,"activity change, negative = inhibition"
CCC(C)c1ccc(S(=O)(=O)N2CCN(c3ccccn3)CC2)cc1 (stereo not drawn),"inconclusive: 20 µM [inhibitor, single point]",–
CCOC(=O)c1c(C)[nH]c(C)c1S(=O)(=O)NCC1CCN(Cc2ccccc2OC)CC1,"inconclusive: 8.91 µM [inhibitor, partial curve, poor fit]",–
CCc1ccc(NC(=O)c2cc(C)nn2-c2ccccc2)cc1,"inconclusive: 31.6 µM [inhibitor, single point] and inconclusive: 10 µM [inhibitor, single point]",–
Cc1ccc(C)c(NC(=O)NCc2ccccn2)c1,"inconclusive: 28.2 µM [inhibitor, single point]",–
NC(=O)c1cccc(-c2ccnc3c2CC(C(=O)Nc2cccc(Oc4ccccc4)c2)O3)c1 (stereo not drawn),"inconclusive: 28.2 µM [inhibitor, single point]",–
Cc1ccccc1OCCNC(=O)c1ccccc1Sc1ccccc1C#N,"inconclusive: 8.91 µM [inhibitor, partial curve, poor fit]",–
COc1ccc(C2c3cc4c(cc3OC(N3CCOCC3)C2C)OCO4)c(OC)c1 (stereo not drawn),"inconclusive: 1.41 µM [inhibitor, full curve, poor fit]",–
O=[N+]([O-])c1c(Nc2ccccc2O)cc(Cl)c2nonc12,"inconclusive: 12.6 µM [inhibitor, partial curve, poor fit]",–
CCCCCCCCN1C(=O)[C@H](CC(=O)NCCCC)C[C@@]2(C(=O)OC)CCCCC=C12,"inconclusive: 28.2 µM [inhibitor, single point]",–
CC(C)(C)Nc1c(-c2cccs2)nc2ccccn12,"inconclusive: 22.4 µM [inhibitor, single point]",–
CCc1cc2c3c(c(=O)oc2cc1OC)CCCC3,–,inactive: -20.3%
O=C(NCC(O)c1ccccc1)c1cccc(S(=O)(=O)N2CCOCC2)c1 (stereo not drawn),–,inactive: -0.434%
Cc1ccccc1C1CC(c2ccccc2OC(F)F)Nc2ncnn21 (stereo not drawn),"inconclusive: 10 µM [inhibitor, single point]",–
COc1ccccc1-c1csc(C(O)c2ccccc2)n1 (stereo not drawn),"inconclusive: 28.2 µM [inhibitor, single point]",–
Cc1noc(NS(=O)(=O)c2ccc(NC(=O)CCCOc3ccc(Cl)cc3Cl)cc2)c1C,–,inactive: -21.9%
O=C(Nc1ccccc1)N1CCCC2CCCCC21 (stereo not drawn),"inconclusive: 11.2 µM [inhibitor, single point]",–
Fc1ccc2[nH]c3c(NCCN4CCOCC4)ncnc3c2c1,–,inactive: 11.3%
CCC1Sc2ccc(S(=O)(=O)CCC(=O)Nc3cccc(Br)c3)cc2NC1=O (stereo not drawn),"inconclusive: 28.2 µM [inhibitor, single point]",–
